Assay results published in publication PMC4336329 (PLoS ONE, 2015).
Hit rate of the full screen: of about 310,000 compounds, about 2,200 (0.71%) showed an effect of 50% or more. The effect is printed as a negative number. The list shows a part of the results.

molecular target: human ether-à-go-go-related gene (hERG) potassium channel (human, UniProt Q12809); experiment: primary screen, population patch clamp on CHO cells stably expressing hERG
Sequence (Q12809 whole entry, looked up): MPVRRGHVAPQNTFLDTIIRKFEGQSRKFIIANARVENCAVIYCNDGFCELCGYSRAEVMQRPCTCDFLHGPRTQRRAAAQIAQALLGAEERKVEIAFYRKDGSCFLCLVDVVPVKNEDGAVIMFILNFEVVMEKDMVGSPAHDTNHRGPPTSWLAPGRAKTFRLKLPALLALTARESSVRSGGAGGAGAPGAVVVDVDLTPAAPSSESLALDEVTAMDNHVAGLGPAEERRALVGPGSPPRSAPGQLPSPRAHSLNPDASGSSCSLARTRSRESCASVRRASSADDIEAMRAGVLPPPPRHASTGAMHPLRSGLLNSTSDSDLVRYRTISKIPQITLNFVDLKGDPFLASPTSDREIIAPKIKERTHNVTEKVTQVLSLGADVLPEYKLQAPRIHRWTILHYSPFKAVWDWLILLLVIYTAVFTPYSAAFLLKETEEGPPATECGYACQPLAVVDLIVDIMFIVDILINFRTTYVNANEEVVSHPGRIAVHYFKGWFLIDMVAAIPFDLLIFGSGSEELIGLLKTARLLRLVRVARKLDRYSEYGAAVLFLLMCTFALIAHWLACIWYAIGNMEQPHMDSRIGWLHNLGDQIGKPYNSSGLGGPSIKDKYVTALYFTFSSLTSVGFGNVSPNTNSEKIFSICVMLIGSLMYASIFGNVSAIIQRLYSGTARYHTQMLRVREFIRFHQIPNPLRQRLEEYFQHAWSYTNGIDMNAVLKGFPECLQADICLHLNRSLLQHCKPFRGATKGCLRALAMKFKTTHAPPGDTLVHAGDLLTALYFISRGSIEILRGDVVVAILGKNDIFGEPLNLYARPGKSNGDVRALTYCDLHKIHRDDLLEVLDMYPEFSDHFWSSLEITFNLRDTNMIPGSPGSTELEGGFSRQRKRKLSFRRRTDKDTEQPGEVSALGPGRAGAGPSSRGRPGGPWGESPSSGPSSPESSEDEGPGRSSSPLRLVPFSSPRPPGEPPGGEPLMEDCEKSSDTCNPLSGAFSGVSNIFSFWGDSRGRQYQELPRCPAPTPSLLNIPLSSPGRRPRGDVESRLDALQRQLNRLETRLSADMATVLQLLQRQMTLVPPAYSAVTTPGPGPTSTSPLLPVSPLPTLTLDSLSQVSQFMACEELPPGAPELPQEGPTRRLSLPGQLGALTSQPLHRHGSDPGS

| Compound | hERG current change (%, negative = inhibition) at 1uM |
| --- | --- |
| Cc1cc(NC(=O)Cn2nc([N+](=O)[O-])c(Br)c2C)no1 | 15.4% |
| COc1ccccc1CN1C[C@@H]2C[C@@H](c3ccccc3OC)N3CCC[C@@]23C1=O | 12.4% |
| CC(Oc1ccccc1)C(=O)NC1C(=O)N2C1SC(C)(C)C2C(=O)[O-].[K+] (stereo not shown) | 8.45% |
| O=C(Nc1ccccc1)Nc1nnc(-c2cccs2)s1 | 15% |
| CCN(CC)c1ccc(C2NC(=O)NC(C)=C2C(=O)Nc2ccccc2)cc1 (stereo not shown) | 17.3% |
| Cl.NC(Cc1ccc2nsnc2c1)C(=O)O (stereo not shown) | 3.22% |
| O=C(CN(C(=O)CNC(=O)c1cccs1)c1ccc2c(c1)OCCO2)NC1CCCC1 | -3.99% |
| Cc1ccccc1C(=O)NC1CCN(Cc2nnnn2C2CCCC2)CC1 | 6.71% |
| O=C(O)CSc1sc(=S)sc1SCC(=O)O | 8.02% |
| COc1cccc(CNC(=O)CCC(=O)N2CCSc3ccccc32)c1OC | 12.4% |
| CCOCCOc1nc2c(c(=O)n(C)c(=O)n2C)n1Cc1ccc(C)cc1 | 0.0056% |
| O=C(C1CCC(=O)N(C2CCCC2)C1)N1CCC(Oc2cccc(F)c2)CC1 (stereo not shown) | 7.71% |
| COC(=O)c1[nH]c(C)c(/C(O)=C2\C(=O)C(=O)N(CCN3CCOCC3)C2c2ccco2)c1C (stereo not shown) | 14.9% |
| O=C(Nc1cccc(OC(=O)c2ccco2)c1)c1ccco1 | 10.3% |
| Nn1c(SCc2ccc(C(=O)O)cc2)nnc1-c1ccc(Cl)cc1Cl | 9.81% |
| CC(C)N(C(=O)c1nn(C)c2c1CSc1ccccc1-2)C1CCCCC1 | 17.2% |
| CCC(C)[C@H](NC(=O)[C@@H]1Cc2c([nH]c3ccccc23)C2c3ccccc3C(=O)N21)C(=O)NCC1CCCO1 (stereo partly shown) | -8.22% |
| Cc1ccc(C)c(N2CCN(Cc3nnnn3C3CCCCC3)CC2)c1.Cl | 6.62% |
| S=C(Nc1ccc(Cl)cc1Cl)N1CCCC1 | 14.8% |
| COC(C[C@@H]1O[C@H]1C(=O)COCc1ccccc1)OC | 11.9% |
| Cc1ccc(C)c(N2CCN(C(=O)c3cc4ccccn4n3)CC2)c1 | 12.8% |
| Clc1cccc(/C=N/Nc2nc(Cl)nc3ccccc23)c1 | -11.1% |

| Compound | hERG current change (%, negative = inhibition) at 1uM |
| --- | --- |
| CC(=O)c1cccc(N2C(=O)Nc3ccccc3N2O)c1 | 12.4% |
| O=C(CSc1nnc(Cc2ccccc2)o1)NCCN1C(=O)CSC1=O | 14.8% |
| COc1ccc(NC(=O)CSc2nnc(-c3ccccn3)n2N)cc1Cl | 4.93% |
| COC(=O)[C@H](CCSC)NC(=O)Nc1ccc(OC)c(Cl)c1 | 8.86% |
| COc1ccc(C)cc1S(=O)(=O)NC(C)c1cnn(-c2ccccn2)c1C (stereo not shown) | 6.27% |
| O=C(COC(=O)c1cc(S(=O)(=O)N2CCOCC2)ccc1F)Nc1c(Cl)cccc1C(F)(F)F | 13.1% |
| Cc1cccc(C)c1NC(=O)CNC(=O)c1c(C)nn(-c2ccccc2)c1Cl | 5.29% |
| COc1ccccc1-n1c(SCC(=O)NC(C)(C)C)nc(O)cc1=O | 6.36% |
| CCN(Cc1ccccc1)S(=O)(=O)c1ccc(C(=O)N(CCCN(C)C)c2nc3c(F)cccc3s2)cc1.Cl | -21.2% |
| O=C(COC(=O)c1ccccn1)Nc1nc(-c2cccc([N+](=O)[O-])c2)cs1 | 7.73% |
| CC(=O)Nc1ccc(NC(=O)CNS(=O)(=O)c2ccc(C)cc2)cc1 | 6.69% |
| CC(=O)N/C(=C\c1ccccc1)C(=O)NC(C)C(=O)O (stereo not shown) | 19.6% |
| COC(=O)c1ccsc1NC(=O)c1ccccc1 | 4.83% |
| CCOC(=O)CN1C(=O)/C(=C/c2ccccc2Br)Oc2ccccc21 | 17.9% |
| Cc1ccc(OCCCC(=O)Nc2nncs2)cc1 | 17.1% |
| CC(=O)COc1cccc2ccc(/C=C/c3ccc(Br)s3)nc12 | 7.21% |
| N#C/C(=C(/O)c1ccc(Cl)c([N+](=O)[O-])c1)c1nc2ccccc2[nH]1 | 7.01% |
| Nc1nnc(SCc2ccc([N+](=O)[O-])cc2)s1 | -7.81% |
| COCOc1ccc(/C=C/C(=O)c2c(O)cc(OCOC)cc2OCOC)cc1 | 12.6% |
| O=C(COC(=O)[C@H](Cc1ccccc1)NC(=O)c1ccco1)NCc1ccccc1 | 4.12% |
| CSc1nc(/C=C2\C=Nc3ccccc32)c(O)n1C | 13.2% |
| COc1ccc2c(c1)C(=O)C(=O)N2CCS(=O)(=O)c1ccccc1 | 13.2% |

| Compound | hERG current change (%, negative = inhibition) at 1uM |
| --- | --- |
| CCCCOC(=O)Nc1ccc(C)c(Cl)c1 | 13.1% |
| CCOC(=O)c1[nH]cnc1C(=O)Nc1ccc(F)cc1 | 7.66% |
| Cc1nc(-c2ccc(NC(=O)Cc3ccccc3)cc2)cs1 | 15% |
| Cc1ccc(S(=O)(=O)N2CCCCC2)cc1NC(=O)c1ccc(Cl)nc1 | 2.81% |
| Cc1ccc(N2CC(C(=O)N(C)CC(=O)Nc3ccc(Cl)c(C(F)(F)F)c3)CC2=O)cc1 (stereo not shown) | 3.57% |
| COc1ccc(COC(=O)NNC(=O)c2ccc(OC)cc2)cc1 | -1.5% |
| COC(=O)CCN(c1ccccc1)S(=O)(=O)c1ccc(OC)cc1 | 6.94% |
| COCCN(C(=O)CNC(=O)c1ccco1)C(C(=O)NC1CCCC1)c1ccccc1F (stereo not shown) | 1.58% |
| COc1ccc(OC)c(NC(=O)C23CCC(C)(C(=O)C2)C3(C)C)c1 (stereo not shown) | 9.43% |
| COc1ccccc1-c1cc(C(=O)Nc2ccccc2SC)no1 | -1.22% |
| COc1ccc(F)cc1C(=O)C1CCCN(Cc2cn(C)c3ccccc23)C1 (stereo not shown) | 14.2% |
| COc1ccc(NC(=O)CSc2nc3ccccc3c(=O)n2CCNC(C)=O)cc1 | -12.8% |
| NC(CS(=O)O)C(=O)O (stereo not shown) | 8.7% |
| COC(=O)C1(C)NC(c2ccc(O)cc2)C2C(=O)N(c3ccc(C)cc3)C(=O)C21 (stereo not shown) | 12.3% |
| CC(Oc1ccccc1)C(=O)NNS(=O)(=O)c1ccc([N+](=O)[O-])cc1 (stereo not shown) | 15.4% |
| Cc1[nH]n(CCC#N)c(=O)c1CC(=O)N1CCN(c2ccccc2)CC1 | 7.28% |
| C=CCn1c(=O)c2ccc(C(=O)NCc3ccccc3)cc2n(Cc2ccccc2Cl)c1=O | 13.8% |
| c1ccc(-c2nc(N3CCOCC3)cc(N3CCOCC3)n2)cc1 | 9.93% |
| CC1CCC(N2CCN(C(=O)c3ccccc3F)CC2)CC1.O=C(O)C(=O)O (stereo not shown) | 3.29% |
| C/C(Cl)=C\Cn1c(N2CCCC2)nc2c1c(=O)n(C)c(=O)n2C | 16.3% |
| CN(CC(=O)O/N=C(\N)c1ccccn1)S(=O)(=O)c1ccc(Br)cc1 | 6.11% |
| O=C(Cn1cnnn1)OCC(=O)c1ccc(Cl)s1 | 14.8% |

| Compound | hERG current change (%, negative = inhibition) at 1uM |
| --- | --- |
| CC(C)N(C(=S)Nc1cccc(C(F)(F)F)c1)C(C)c1ccccn1 (stereo not shown) | 4.87% |
| COC(=O)c1ccc2c(C(C)(C)O)c(C(C)(C)O)[nH]c2c1 | 17.2% |
| CCOC(=O)Cc1csc(NC(=S)NC(=O)c2ccccc2C)n1 | 12.9% |
| CCCC(C(=O)Nc1ccc(S(=O)(=O)Nc2ncccn2)cc1)c1ccccc1 (stereo not shown) | 11.1% |
| S=C(N/N=C1\C2CN3CCN(C2)CC1(c1ccccc1)C3)Nc1ccccc1 | 2.85% |
| CCOC(=O)c1cc(-c2nnc(-c3ccc(Cl)cc3)o2)c(C)nc1C | 5.38% |
| CCN1CCN(c2ccc(NC(=O)c3cccc(OCc4ccccc4)c3)cc2)CC1 | 6.49% |
| CC(C)OC(=O)/C(=C\C=C\c1ccccc1)NC(=O)c1ccccc1 | 0.793% |
| CCn1c(CC(=O)Nc2cccc(OC)c2)nnc1SCC(=O)Nc1nccs1 | -12.4% |
| COc1ccc(O)c(CN2CCC(n3nccc3NC(=O)C3CCCC3)CC2)c1 | -28.4% |
| CCOC(=O)C(=CNc1cc(C)ccn1)C(=O)OCC | 6.18% |
| COc1ccc(-c2c3c(nc4sc(C(=O)Nc5ccccc5)c(N)c24)CCC3)cc1 | 8.36% |
| O=C(NCC(c1ccco1)N1CCOCC1)c1cccc([N+](=O)[O-])c1 (stereo not shown) | -2.1% |
| COc1cc(/C=C(\C#N)c2ccccn2)ccc1OCc1ccccc1 | -2.19% |
| CCCC1C(C#N)=C(N)Oc2cc(C)n(C)c(=O)c21 (stereo not shown) | 15.4% |
| c1ccc(-c2ccc3c(c2)NCCN3)cc1 | 11.5% |
| CC(C)(C)c1ccc(OCC(=O)NNC(=O)CCc2ccccc2)cc1 | 6.66% |
| NC(=O)c1ccc(Cn2c(C(=O)c3ccc(Cl)cc3)c3ccccc3[n+]2[O-])cc1 | 0.226% |
| CCCCNC(=O)Nc1cc(C(F)(F)F)c[nH]c1=O | 3.81% |
| CN(CC(=O)Nc1ccccc1Cl)C(=O)COC(=O)c1nc(Cl)c(Cl)c(Cl)c1Cl | 9.88% |
| COc1ccc(CCNC(=O)c2ccc(N(C)S(=O)(=O)c3ccc(C)cc3)cc2)cc1OC | 10.3% |
| CCn1c(NC(=O)Nc2cccc(C)c2C)cc2sccc21 | 15.9% |
